The other results are listed elsewhere or left out. At the low end of the ranking, values are background and their order means little. The protein was read in a cell extract, so binding may be indirect.

In article PMC10726135 one finds binding signal (log2 normalized intensity) data, which are given here for 73 sequences.

This test has as its target T1, HNF4alpha8 (COS-7 nuclear extract) (UniProt P41235-5).
T1 sequence: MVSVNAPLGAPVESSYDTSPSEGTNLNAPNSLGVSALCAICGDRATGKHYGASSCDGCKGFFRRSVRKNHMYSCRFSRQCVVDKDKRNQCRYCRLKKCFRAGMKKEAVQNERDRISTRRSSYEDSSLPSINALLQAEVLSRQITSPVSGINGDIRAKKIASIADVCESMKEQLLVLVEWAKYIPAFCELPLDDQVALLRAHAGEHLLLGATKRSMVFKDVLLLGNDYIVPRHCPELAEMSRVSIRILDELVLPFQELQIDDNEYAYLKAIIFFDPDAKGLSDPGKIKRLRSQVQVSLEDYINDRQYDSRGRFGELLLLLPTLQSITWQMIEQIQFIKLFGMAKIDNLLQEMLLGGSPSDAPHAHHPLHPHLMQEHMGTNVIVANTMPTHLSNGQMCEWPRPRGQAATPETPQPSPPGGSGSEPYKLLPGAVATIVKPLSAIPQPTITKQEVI
Briefly: protein-binding microarray. The note with it: COS-7 nuclear extract on double-stranded Agilent 4x180k PBM; binding buffer, salt, pH and temperature not given; high values mean tight binding; double strand, one strand shown; sequences stand for … in …GCCTAGGGAGATTAGAGTATCGGTCGA
Turning to AATCTTCATTCCTCAAATGCTCCTTTGAAC, the binding signal (log2 normalized intensity) turned out to be 3.03.

GAGTGCTTTCATCTTTGCGGTGAGCATTTG: the binding signal (log2 normalized intensity) was 1.03.

Take AGGGAGGCAGCCACCTAGGCCGGTCAAGTC: the binding signal (log2 normalized intensity) was -1.29.

As for GCATGACTTGTTATCACCTGCTGGAATGTT, the binding signal (log2 normalized intensity) came to 1.88.

TCAAATCCCCTAGGTGATTAGAAGATAGCT: the binding signal (log2 normalized intensity) is -1.28.

Regarding CTTATACGTGGAAGAAACTCATCTCCAGAT, the binding signal (log2 normalized intensity) is -1.27.

Regarding TCCAGCCAGGTTGCATCAGCTGGGCTCGGC, the binding signal (log2 normalized intensity) was -1.45.

Consider TGCCTGGGTCCTGGGAGCAAACCCCAGCTG, for which the binding signal (log2 normalized intensity) is -1.26.

Take ATGATGAAAGCAATGTTTGAGGAAGATTAG: the binding signal (log2 normalized intensity) is -1.24.

Regarding AACTAAAAGTATCTAAGGGCCTAGAAGAGT, the binding signal (log2 normalized intensity) was -1.24.

Take CCCCTTCTTAACATCAGAAGTTGGACTTTG: the binding signal (log2 normalized intensity) was determined as 8.31.

For CTGCGTTTTTTCCGAACGCCAGCAGCAGGG, the binding signal (log2 normalized intensity) was -1.32.

Turning to CTATAGTTATCTCTGCTGATAGCATAAAGC, the binding signal (log2 normalized intensity) was 0.212.

In the case of CGCGCGTGTGGATACGATGACATCATCTGT, the binding signal (log2 normalized intensity) came to 0.525.

In the case of ATTTCAAACCTTTGCCCCACTCTCCTCTGC, the binding signal (log2 normalized intensity) was determined as 3.78.

GTAAATATGACCTTTGCTTTTCAAGATTTT: the binding signal (log2 normalized intensity) came out at 3.79.

Take AGACTTTGGACCTGGCCCTCTGGGTTGGAA: the binding signal (log2 normalized intensity) stood at 5.58.

As to CTGGAGTCCAAAGGTCAGCAAGCCTGGAGT, the binding signal (log2 normalized intensity) came out at 7.44.

Take GATCAGAAATGTTTGGAATTCCACAGCAGA: the binding signal (log2 normalized intensity) is -0.813.

Consider CAGTGGGCCCAGAGCACAACCTTTGGCCGT, for which the binding signal (log2 normalized intensity) came to 5.28.

For ATGATTTCAGCTTATAAATCTTCAACTGGA, the binding signal (log2 normalized intensity) is -0.973.

With CCTGTACCTAGAATTCTTTCACTCCCTTTT, the binding signal (log2 normalized intensity) came to 0.592.

CCCTCCATGTAACCCCTTTTCAATTCCTTA: the binding signal (log2 normalized intensity) amounted to 1.77.

Turning to GGAGGAAATCTCTCTGGTCAAAGGGTAAAG, the binding signal (log2 normalized intensity) was found to be 3.39.

As to GTCCTTCCAAAGTCCTTCTAAAGCAAATTT, the binding signal (log2 normalized intensity) stood at 1.86.

As for CAAGAAGTTCCAAAGGCCAGTGTGGCTAAC, the binding signal (log2 normalized intensity) came out at 1.3.

With AAGGAAGGTGCTTATCAGAGCAAGAGATGG, the binding signal (log2 normalized intensity) was -1.12.

With ACAGCAGTGGACTTTGACCTTGGCACTGAA, the binding signal (log2 normalized intensity) is 9.68.

Regarding GTCCTTGATAAGCAAGATGACTTTGGTCTA, the binding signal (log2 normalized intensity) is 1.82.

With CATCTACCAGCGTAATTCTGGCTCTTTGAG, the binding signal (log2 normalized intensity) is -0.849.

In the case of GCCTAGGAAAACCAGAGACCTTTGTTCACT, the binding signal (log2 normalized intensity) stood at 3.69.

With GCATCTCATTACTGACAGAGATCAAAAACC, the binding signal (log2 normalized intensity) was -0.109.

On to CCTGTACACGGTTCTTGACCTGTGATAAGA, for which the binding signal (log2 normalized intensity) worked out at 2.98.

Consider GATCCCTTATTTGCATGAAGCACAAAGGTT, for which the binding signal (log2 normalized intensity) was 3.17.

Regarding GCGTGGTGGCCTGTGCCTGTAGTCCCAGCG, the binding signal (log2 normalized intensity) was -1.3.

Consider CAGAGGAGATCAGAGGAGGCACTTGTCTCA, for which the binding signal (log2 normalized intensity) was -1.33.

Take TGTGCTGAAAAGACTTCACAATCAATTCCA: the binding signal (log2 normalized intensity) is -1.35.

As for TGGTTTACATTCTTAGAAGATAAAGTGTCT, the binding signal (log2 normalized intensity) was found to be 0.378.

CTCAAGTGACCTTTGACCTCTGGCCTTTGC: the binding signal (log2 normalized intensity) was determined as 10.3.

In the case of GCTGGTGGGTGGGGGAAGTGTGGTCAAGGG, the binding signal (log2 normalized intensity) came out at 1.35.

Take ATTTAAGCTTGAGACAAAGGAAACTGATTG: the binding signal (log2 normalized intensity) was -1.25.

Take TACATTGGACAACTGTACTTTGGACTGGGG: the binding signal (log2 normalized intensity) was 6.69.

Turning to CAGAAAAATGGAGCAGCTCTGTATTGAGAT, the binding signal (log2 normalized intensity) is -1.16.

Regarding ATGTCTCAAGATATCTATATGTTTACATAT, the binding signal (log2 normalized intensity) came to 1.75.

For the sequence GGACAGTGGTCTTTATGACTTGGGTGCACC, the binding signal (log2 normalized intensity) is 2.3.

For CCCAGATGCACGTGCTCCAGGAGGGGAGGA, the binding signal (log2 normalized intensity) was -1.25.

In the case of AAGACTGAGCAGCTGGAGGGGGACTGGAAG, the binding signal (log2 normalized intensity) is -1.31.

As for ACAGTAGGCTCTAGATGTCTCAGTAGATAA, the binding signal (log2 normalized intensity) was -1.27.

Consider ATTTCATAGACTGTCCCTCAGTGTGGGACT, for which the binding signal (log2 normalized intensity) was -0.161.

Turning to CCCTTCCTCTGCAGCCGCCCTTTTGCCTCC, the binding signal (log2 normalized intensity) worked out at 2.92.

With AACAAAACACGGACTTTGAAGCTCCAAGAT, the binding signal (log2 normalized intensity) was 1.81.

Take CAGCCTGATACCAGATCCTTCAGCCAAGGA: the binding signal (log2 normalized intensity) is -1.36.

On to GAGTTGTCATCATAAAAGTTCTCATGCTAA, for which the binding signal (log2 normalized intensity) was -0.91.

For the sequence CTAGAGGCCTTCTCTGTGAACACACCGTAG, the binding signal (log2 normalized intensity) is -1.29.

In the case of AGGCTGTTCTGATGCCATTCCCTGCAGGTG, the binding signal (log2 normalized intensity) was -1.24.

For the sequence ATTGTTAGCCTAAACTATCTGGTGCGGTCC, the binding signal (log2 normalized intensity) worked out at 0.59.

For GCCCTTCCCTAACCCTTCAAGGGCCACTCA, the binding signal (log2 normalized intensity) is -0.669.

Consider GCAAGACGCCGTCTCAAAAAAAAAAAAAAG, for which the binding signal (log2 normalized intensity) was -1.3.

As to GCTTCCCTTTCTACTGCCAGCCAGGGCCAC, the binding signal (log2 normalized intensity) was -1.02.

Consider GGCCATTCCAGTTTTGGAGAGGGGAACGAT, for which the binding signal (log2 normalized intensity) was -1.19.

On to CAATATTTGTTAAGTACCCACTATAGATTG, for which the binding signal (log2 normalized intensity) worked out at 0.68.

With TGTGATAAGGTGTTGAAAAGAGCATAAGGT, the binding signal (log2 normalized intensity) was found to be 0.243.

AGAAAAAGAAAAGCCTTGTGGCAGTGAGAA: the binding signal (log2 normalized intensity) is -1.36.

Take TCCATATTTGGAAGTAAGAACCCCACTATT: the binding signal (log2 normalized intensity) came out at 2.85.

Turning to CCAAATTCTCCCAGGCCATACAGATACCCA, the binding signal (log2 normalized intensity) was -1.13.

Turning to AACCACCTATTCTGAAGATTGCTAGCTGAG, the binding signal (log2 normalized intensity) is -1.37.

In the case of TGGAACAAGGTCCCATGCACTGGCCTGGAT, the binding signal (log2 normalized intensity) is -1.01.

In the case of CCCGGACCAGGCCGGGTCACGTGGGTCCAG, the binding signal (log2 normalized intensity) is 3.63.

For AAGCACATCCTGTTCTAGCTCGGGGGCCCT, the binding signal (log2 normalized intensity) is -1.28.

With TTAGAGAAAGGGTCAAAGGTTAAGCCATTG, the binding signal (log2 normalized intensity) was found to be 6.33.

As for TGCTTCTTGGCCTCTTTGTTTACACTGTGA, the binding signal (log2 normalized intensity) is 1.68.

Consider ACAGGGAAAGTATGGGTCAGCCCTGCCATC, for which the binding signal (log2 normalized intensity) was -0.943.

Turning to TGTTATTTGCTGAGGTGGGGGAGGTAGGTA, the binding signal (log2 normalized intensity) is -1.3.
